# Measurements from PubChem BioAssay (NCI).
#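 A five-concentration, 48-hour dose response in 96-well plates underlies each endpoint, interpolated linearly between surrounding concentrations. GI50: concentration for 50% inhibition of growth.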 Some entries of the source have several records that differ or are many. This is not the full list of results. There may be further records. For some assays here: Records of one sample usually come from different ranges of test concentrations, not given here; a value can be the end of its range. Brackets tell where a record comes from. Letters count within one entry.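 TGI is the concentration that stops growth completely.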 For some assays here: Results that share an entry are repeated measurements in other runs, samples, wells, individuals or studies.
# Experiments:
# Assay in all cases: inhibition of tumour cell growth, NCI panel, 48 h
# [1] = system: HCT-15 colon
# [2] = system: SN12C renal
# [3] = system: MALME-3M melanoma
# [4] = system: RXF 393 renal
# [5] = system: LOX IMVI melanoma
# [6] = system: SF-295 CNS
# [7] = system: NCI-H460 lung
# [8] = system: UACC-257 melanoma
# [9] = system: HT29 colon
# [10] = system: DU-145 prostate
# [11] = system: CCRF-CEM leukemia
# [12] = system: RPMI-8226 leukemia
# [13] = system: OVCAR-8 ovarian
# [14] = system: NCI-H23 lung
# [15] = system: HOP-62 NSCLC
# [16] = system: T-47D breast
# [17] = system: U251 CNS
# [18] = system: SK-MEL-5 melanoma
# [19] = system: SNB-75 CNS
# [20] = system: KM12 colon
# [21] = system: SK-MEL-28 melanoma
# [22] = system: IGROV1 ovarian
# [23] = system: MOLT-4 leukemia
# [24] = system: MDA-MB-435
structure (smiles),measurement,setting,value
CCC1(O)CC(OC2CC(N(C)C)C(OC3CC4OC5CC(=O)C(C)OC5OC4C(C)O3)C(C)O2)c2c(cc3c(c2O)C(=O)c2c(O)ccc(O)c2C3=O)C1C(=O)OC (centres undefined),GI50,[1],"< 0.1 nM, 21.3 nM [sample A, 1 test] and 10.2 nM [sample B, mean of 4 tests] and 8.55 nM [sample B, mean of 7 tests]"
same,TGI,[1],"1.29 nM [sample A, 1 test] and 189 nM [sample B, 1 test] and 216 nM [sample B, mean of 4 tests] and 153 nM [sample B, mean of 7 tests]"
same,GI50,[2],"< 0.1 nM [sample A, 1 test] and 8.54 nM [sample B, mean of 6 tests] and 4.13 nM [sample B, mean of 7 tests]"
same,TGI,[2],"8.59 nM [sample A, 1 test] and > 36.6 µM [sample B, mean of 2 tests] and 260 nM [sample B, mean of 6 tests] and 415 nM [sample B, mean of 7 tests]"
same,GI50,[3],"< 0.1 nM, 40.2 nM [sample A, 1 test] and < 11.2 nM [sample B, mean of 2 tests] and 9.56 nM [sample B, mean of 3 tests] and 8.29 nM [sample B, mean of 5 tests]"
same,TGI,[3],"0.123 nM, 251 nM [sample A, 1 test] and < 25.6 nM [sample B, mean of 2 tests] and 19 nM [sample B, mean of 3 tests] and 29.2 nM [sample B, mean of 5 tests]"
same,GI50,[4],"< 0.1 nM [sample A, 1 test] and 7.5 nM [sample B, mean of 4 tests] and 1.67 nM [sample B, mean of 6 tests]"
same,TGI,[4],"< 0.1 nM [sample A, 1 test] and 9.55 nM [sample B, mean of 4 tests] and 6.77 nM [sample B, mean of 6 tests]"
same,TGI,[5],17.9 nM and 432 nM
same,GI50,[6],"< 0.1 nM [sample A, 1 test] and 8.56 nM [sample B, mean of 4 tests] and 2.81 nM [sample B, mean of 7 tests]"
same,TGI,[6],"1.35 nM [sample A, 1 test] and 451 nM [sample B, mean of 2 tests] and 28.3 nM [sample B, mean of 4 tests] and 35.8 nM [sample B, mean of 7 tests]"
same,GI50,[7],"< 0.1 nM, 0.387 nM [sample A, 1 test] and 7.5 nM [sample B, mean of 2 tests] and 0.697 nM [sample B, mean of 5 tests]"
same,TGI,[7],"10.3 nM, 141 nM, 1.01 µM [sample A, 1 test] and 82.3 nM, 312 nM [sample B, mean of 2 tests] and 23.8 nM [sample B, mean of 5 tests]"
same,GI50,[8],"< 0.1 nM [sample A, 1 test] and 13.8 nM [sample B, mean of 4 tests] and 14.7 nM [sample B, mean of 8 tests]"
same,TGI,[8],"0.254 nM [sample A, 1 test] and 72.5 nM [sample B, 1 test] and 27.1 nM [sample B, mean of 4 tests] and 40.4 nM [sample B, mean of 8 tests]"
same,GI50,[9],"< 0.1 nM, 3.31 nM [sample A, 1 test] and 8.48 nM [sample B, mean of 6 tests] and 1.57 nM [sample B, mean of 7 tests]"
same,TGI,[9],"17.5 nM, 263 nM [sample A, 1 test] and 1.28 µM [sample B, mean of 2 tests] and 30.1 nM [sample B, mean of 6 tests] and 79.8 nM [sample B, mean of 7 tests]"
same,GI50,[10],"< 0.1 nM, 26.8 nM [sample A, 1 test] and 8.72 nM [sample B, mean of 2 tests]"
same,TGI,[10],"9.33 nM [sample A, 1 test] and 503 nM [sample B, mean of 2 tests]"
same,GI50,[11],"< 0.1 nM, 1.99 nM [sample A, 1 test] and 8.68 nM [sample B, mean of 4 tests] and 2.65 nM [sample B, mean of 8 tests]"
same,TGI,[11],"0.187 nM, 14.8 nM [sample A, 1 test] and 51.6 nM [sample B, mean of 4 tests] and 110 nM [sample B, mean of 8 tests]"
same,GI50,[12],"< 0.1 nM, 1.02 nM [sample A, 1 test] and 8.42 nM [sample B, mean of 4 tests] and 3.36 nM [sample B, mean of 6 tests]"
same,TGI,[12],"< 0.1 nM, 25.1 nM [sample A, 1 test] and 19.3 nM [sample B, 1 test] and 23.5 nM [sample B, mean of 4 tests] and 26.6 nM [sample B, mean of 6 tests]"
same,GI50,[13],"< 0.1 nM, 1.93 nM [sample A, 1 test] and 9.17 nM [sample B, mean of 4 tests] and 2.43 nM [sample B, mean of 7 tests]"
same,TGI,[13],"1.51 nM [sample A, 1 test] and 242 nM [sample B, mean of 2 tests] and 170 nM [sample B, mean of 4 tests] and 503 nM [sample B, mean of 7 tests]"
same,GI50,[14],"< 0.1 nM, 13.5 nM [sample A, 1 test] and 8.7 nM [sample B, mean of 4 tests] and 6.29 nM [sample B, mean of 7 tests]"
same,TGI,[14],"0.11 nM, 162 nM [sample A, 1 test] and 22.1 nM [sample B, mean of 2 tests] and 27 nM [sample B, mean of 4 tests] and 25.4 nM [sample B, mean of 7 tests]"
same,GI50,[15],"< 0.1 nM, 2.82 nM [sample A, 1 test] and 9.47 nM [sample B, mean of 5 tests] and 4.07 nM [sample B, mean of 6 tests]"
same,TGI,[15],"1.5 nM [sample A, 1 test] and 244 nM [sample B, mean of 2 tests] and 39.9 nM [sample B, mean of 5 tests] and 51.9 nM [sample B, mean of 6 tests]"
same,GI50,[16],"< 0.1 nM, 57.9 nM [sample A, 1 test] and 3 nM [sample B, mean of 3 tests]"
same,TGI,[17],"259 nM, 239 nM [sample A, 1 test] and 1.07 µM [sample B, mean of 2 tests] and 362 nM [sample B, mean of 5 tests] and 330 nM [sample B, mean of 7 tests]"
same,GI50,[18],"< 0.1 nM, 12.1 nM [sample A, 1 test] and 8.16 nM [sample B, mean of 5 tests] and 5.07 nM [sample B, mean of 8 tests]"
same,TGI,[18],"0.274 nM, 49.9 nM [sample A, 1 test] and 13.9 nM [sample B, mean of 5 tests] and 23.2 nM [sample B, mean of 8 tests]"
same,GI50,[19],"1.86 nM [sample A, 1 test] and 19.4 nM [sample B, mean of 6 tests] and 1.7 nM [sample B, mean of 8 tests]"
same,TGI,[19],"295 nM, 52.4 nM [sample A, 1 test] and < 14.6 nM [sample B, mean of 2 tests] and 27.9 nM [sample B, mean of 6 tests] and 16.6 nM [sample B, mean of 8 tests]"
same,GI50,[20],"< 0.1 nM, 22.6 nM [sample A, 1 test] and 9.96 nM [sample B, mean of 5 tests] and 4.68 nM [sample B, mean of 7 tests]"
same,TGI,[20],"130 nM [sample A, 1 test] and 3.45 µM [sample B, mean of 2 tests] and 174 nM [sample B, mean of 5 tests] and 77.4 nM [sample B, mean of 7 tests]"
same,GI50,[21],"< 0.1 nM [sample A, 1 test] and 10 nM [sample B, mean of 2 tests] and 29.1 nM [sample B, mean of 5 tests] and 12.4 nM [sample B, mean of 8 tests]"
same,TGI,[21],"138 nM, 16.1 nM [sample A, 1 test] and 76.7 nM [sample B, mean of 2 tests] and 76.1 nM [sample B, mean of 5 tests] and 45.8 nM [sample B, mean of 8 tests]"
same,GI50,[22],"< 0.1 nM, 4.66 nM [sample A, 1 test] and 9.41 nM [sample B, mean of 5 tests] and 1.43 nM [sample B, mean of 6 tests]"
same,TGI,[22],"23 nM [sample A, 1 test] and 1.44 µM [sample B, 1 test] and 716 nM [sample B, mean of 5 tests] and 610 nM [sample B, mean of 6 tests]"
same,GI50,[23],"< 0.1 nM, 1.76 nM [sample A, 1 test] and 9.99 nM [sample B, mean of 4 tests] and 1.1 nM [sample B, mean of 7 tests]"
same,TGI,[23],"< 0.1 nM, 7.32 nM [sample A, 1 test] and < 32.9 nM [sample B, mean of 2 tests] and 17.8 nM [sample B, mean of 4 tests] and 23.3 nM [sample B, mean of 7 tests]"
same,GI50,[24],"< 0.1 nM, 8.31 nM [sample A, 1 test] and 3.72 nM [sample B, mean of 3 tests]"
